# In article PMC4336329 (PLoS ONE, 2015):
# The campaign covered roughly 310,000 compounds. About 2,200 (0.71%) showed an effect of 50% or more. The effect is printed as a negative number. Some of the results follow.
# Target: human ether-à-go-go-related gene (hERG) potassium channel (human, UniProt Q12809)
# Test: primary screen, population patch clamp on CHO cells stably expressing hERG
# Sequence of human ether-à-go-go-related gene (hERG) potassium channel (Q12809 whole entry, looked up): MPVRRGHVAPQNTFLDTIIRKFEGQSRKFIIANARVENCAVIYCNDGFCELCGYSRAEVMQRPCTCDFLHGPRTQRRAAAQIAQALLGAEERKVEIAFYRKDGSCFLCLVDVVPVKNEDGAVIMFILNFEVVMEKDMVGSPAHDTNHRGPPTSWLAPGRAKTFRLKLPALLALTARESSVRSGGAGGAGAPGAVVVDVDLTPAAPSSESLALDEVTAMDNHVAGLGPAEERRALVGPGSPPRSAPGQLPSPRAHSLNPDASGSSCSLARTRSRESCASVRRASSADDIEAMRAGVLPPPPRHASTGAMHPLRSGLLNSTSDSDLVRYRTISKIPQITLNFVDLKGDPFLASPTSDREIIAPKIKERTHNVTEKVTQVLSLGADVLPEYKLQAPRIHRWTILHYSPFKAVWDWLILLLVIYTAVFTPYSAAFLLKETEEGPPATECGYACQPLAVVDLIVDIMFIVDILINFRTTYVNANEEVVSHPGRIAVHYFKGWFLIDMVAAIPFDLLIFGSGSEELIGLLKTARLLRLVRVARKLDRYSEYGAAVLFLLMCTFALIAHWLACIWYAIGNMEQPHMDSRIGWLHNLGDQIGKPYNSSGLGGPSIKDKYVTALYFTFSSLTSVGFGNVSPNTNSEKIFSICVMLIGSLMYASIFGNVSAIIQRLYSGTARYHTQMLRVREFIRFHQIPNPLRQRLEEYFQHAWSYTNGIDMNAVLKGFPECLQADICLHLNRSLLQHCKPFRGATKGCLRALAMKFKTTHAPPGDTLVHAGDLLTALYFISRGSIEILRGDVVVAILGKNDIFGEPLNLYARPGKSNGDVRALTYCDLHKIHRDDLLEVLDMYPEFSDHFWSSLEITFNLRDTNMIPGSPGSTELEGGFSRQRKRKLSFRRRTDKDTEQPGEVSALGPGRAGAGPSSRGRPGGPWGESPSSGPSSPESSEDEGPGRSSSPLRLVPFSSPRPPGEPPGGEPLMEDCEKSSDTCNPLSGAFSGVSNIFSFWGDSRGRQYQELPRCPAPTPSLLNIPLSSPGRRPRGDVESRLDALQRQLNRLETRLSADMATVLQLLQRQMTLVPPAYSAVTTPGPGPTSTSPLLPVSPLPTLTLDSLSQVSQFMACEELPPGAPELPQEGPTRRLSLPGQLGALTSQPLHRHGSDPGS
row,SMILES,"hERG current change (%, negative = inhibition) at 1uM [%]"
1,COCCNC(=O)C(c1ccc(C)cc1)N(Cc1ccccc1)C(=O)CCC(=O)Nc1ccccn1 (stereo not drawn),8.35
2,Cc1ccc(-c2nc(P(=O)(c3ccccc3)c3ccccc3)c(N3CCOCC3)o2)cc1,-4.67
3,CC(=O)N=c1sccn1CC(O)c1ccccc1 (stereo not drawn),-3.31
4,Cc1ccccc1NC(=S)N1CCCC(c2nc3ccccc3[nH]2)C1 (stereo not drawn),-0.875
5,Cc1ccc(CN2CCN(Cc3ccc(-n4cccn4)cc3)CC2CCO)cc1 (stereo not drawn),-65.5
6,CCOC(=O)c1ccc(NC(=O)CC2COc3ccccc3O2)cc1 (stereo not drawn),11.9
7,NS(=O)(=O)c1ccc(CNC(=O)c2ccccc2SCC(=O)N2CCCC2)cc1,1.87
8,Cc1ccc(C(=O)Nc2nnc(-c3ccco3)o2)cc1,10.4
9,CCN1CCCC1CNC(=O)c1cc(S(N)(=O)=O)ccc1OC (stereo not drawn),20.8
10,COc1ccc(CCN2CC(C(=O)NCCN3CCCC3=O)CCC2=O)cc1 (stereo not drawn),-9.36
11,CCC(C)NC(=O)c1ccccc1NC(=O)c1ccc(CSc2ccc(C)cc2)cc1 (stereo not drawn),4.1
12,COc1ccccc1C(=O)N1CCN=C1SC,7.83
13,CN(C)C(CNC(=O)c1cnc(Cl)c(Cl)c1)c1ccccc1 (stereo not drawn),10.8
14,COc1ccccc1NS(=O)(=O)c1cc(N/C(=N\S(=O)(=O)c2ccccc2)c2ccc(F)cc2)ccc1Cl,7.49
15,CCCCCn1nc(C(=O)OCc2nnc(-c3ccccc3)o2)c2ccccc2c1=O,14.4
16,COc1ccc(-c2cc(=O)oc3c(C)c(OC(C)C(=O)NCc4ccccn4)ccc23)cc1 (stereo not drawn),6.43
17,CC(C)CNC(=O)/C=C/C=C/CCCC/C=C/c1ccc2c(c1)OCO2,14.8
18,COc1ccccc1CN1CCNC(=O)C1CC(=O)NCc1cn(C)nc1C (stereo not drawn),12.5
19,Cc1nc(CS(=O)(=O)c2ccccc2)cc(Sc2ccccc2Cl)n1,7.78
20,CCCCNC(=S)N(CCN(CC)CC)Cc1cc2cc3c(cc2[nH]c1=O)OCCO3,15.9
21,COc1ccc(OC)c(C(=O)NC(CC(N)=O)c2ccc(N3CCN(c4ccccn4)CC3)c([N+](=O)[O-])c2)c1 (stereo not drawn),8.49
22,C=CCn1c(SCC(=O)Nc2ccccc2OC)nc2c([nH]c3ccccc32)c1=O,10.5
23,CCOC(=O)c1sc(NC(=O)CSc2nnc(-c3ccc(OC)cc3)n2CCOC)nc1C,-8.32

row,SMILES,"hERG current change (%, negative = inhibition) at 1uM [%]"
1,COC(=O)c1ccccc1NC(=O)N1CCN(c2ccc(OC)cc2)CC1,-8.69
2,CC(NCCOCCOc1ccccc1)c1ccccc1 (stereo not drawn),6.29
3,CC1CCN(c2ccccc2N)CC1,9.79
4,CCNC(=S)N(CCN(CC)CC)Cc1cc2cc3c(cc2[nH]c1=O)OCCO3,13.8
5,Cc1c(-c2nn(C)c(=O)c3ccccc23)oc2ccc(F)cc2c1=O,8.59
6,CCn1c(CNC(=O)c2ccc(OC)cc2)nnc1SC,14.3
7,Cc1nc(N2CCN(C)CC2)c2c3c(sc2n1)CCCC3,6.16
8,COc1ccc(-c2coc3cc(O)cc(O)c3c2=O)cc1,5.24
9,CCOc1ccc(C(=O)C(C)OC(=O)CN2C(=O)NC(C)(C)C2=O)cc1 (stereo not drawn),3.7
10,COC(=O)c1ccc(/C=N/NC(=O)CNc2cccc(C)c2)cc1,5.65
11,CCOP(=O)(OCC)C(NC(=O)c1ccccc1)C(Cl)(Cl)Cl (stereo not drawn),0.5
12,O=C(OCC(=O)N1CCCC1)c1c(Cl)cccc1Cl,14.6
13,COc1ccc(S(=O)(=O)NNC(N)=S)cc1,11.1
14,C=CCNC(=O)c1ccc(OC)cc1OC,10.9
15,Cc1ccc(CCN2CC(C(=O)NCCCN(C)Cc3ccccc3)CC2=O)cc1 (stereo not drawn),5.08
16,Cc1ccc(NC(=O)CSCC(=O)N2CCOCC2)cc1,8.03
17,Cc1ccc(SCC(=O)N2CCC(C(N)=O)CC2)cc1,14.7
18,CC(C)C(=O)NC(c1ccco1)c1c(O)ccc2ccccc12 (stereo not drawn),17
19,COc1cccc2c1C(=O)CC1C2CCC2CC(=O)CCC21C (stereo not drawn),1.41
20,NC1=NC2(CCCCC2)n2c(nc3ccccc32)N1,4.39
21,Cc1ccc(CSc2nnc(CC(=O)Nc3ccc(C)cc3)n2C)cc1,-4.45
22,CCN(CC)S(=O)(=O)c1ccc(N2CCCC2)c(NC(=O)c2ccc(N3CCCC3=O)cc2)c1,10.7
